# Test results: the supplement of paper PMC6135742
# Where a name gives a salt, the structure may show the parent alone. ± gives the standard deviation of the averaged measurements. Whole data set: some 2,600 compounds, median “total cell number (DAPI+ nuclei) relative to DMSO vehicle control” near -1.4, cut for the lowest 2% near -23. Some of the results follow.
# System: jimpy (Plp1 jimpy) mouse iPSC-derived oligodendrocyte progenitor cells
# Assay: total cell number (DAPI+ nuclei) relative to DMSO vehicle control (SDs above negative control mean); higher = more surviving cells
# Settings: 10 µM; 3 days
row,Compound,total cell number
1,CC1CCN=C(N)S1 (racemic) [(±)-AMT hydrochloride],0.458
2,O=C1c2ccccc2C(=O)c2c(NCCc3ccc(O)cc3)ccc(NCCc3ccc(O)cc3)c21,-6.59
3,FC(F)(F)c1ccc(/C=C/c2nc(COc3ccc(CCCCn4ccnn4)cc3)co2)cc1 [Mubritinib (TAK 165)],-7.9
4,CN(C)CCCOc1nn(Cc2ccccc2)c2ccccc12 [Benzydamine HCl],-5.52
5,O=C1c2c(O)cc(O)cc2OC(c2ccc(O)c(O)c2)C1O (stereo not drawn) [Taxifolin (Dihydroquercetin)],0.892
6,OC[C@@H](O)[C@@H](O)[C@H](O)[C@@H](O)CO [Sorbitol],-0.984
7,Cn1cc(C(=O)OCC2CCN(CCNS(C)(=O)=O)CC2)c2ccccc21,0.409
8,CC(=O)OCC(=O)[C@@]1(O)CC[C@H]2[C@@H]3CCC4=CC(=O)CC[C@]4(C)[C@H]3C(=O)C[C@@]21C [Cortisone 21-acetate],-1.13
9,CC(=O)OCC(=O)[C@@]1(O)CC[C@H]2[C@@H]3CCC4=CC(=O)CC[C@]4(C)[C@H]3C(=O)C[C@@]21C [Cortisone acetate],-1.83
10,CNCC[C@H](Oc1ccc(C(F)(F)F)cc1)c1ccccc1 [S-(+)-Fluoxetine hydrochloride],-4.94
11,NC(=O)c1ncn([C@@H]2O[C@H](CO)[C@@H](O)[C@H]2O)c1N [Acadesine],-1.19
12,CC1=C(/C=C/C(C)=C/C=C/C(C)=C/C(=O)Nc2ccc(O)cc2)C(C)(C)CCC1 [Retinoic acid p-hydroxyanilide],-11.2
13,CC(=O)Oc1cc(C(C)C)c(OCCN(C)C)cc1C [Moxisylyte hydrochloride],-0.472
14,O=C(O)C(Cc1ccccc1[N+](=O)[O-])=NNc1nc(-c2ccc(Cl)c(Cl)c2)cs1 (mixture of isomers),0.206
15,CC1=C(C(=O)OC2CCCCC2)C(c2ccc([N+](=O)[O-])cc2)C2=C(CC(C)(C)CC2=O)N1 (stereo not drawn),-14.4
16,C[C@@H]1C(=O)O[C@H]2C[C@@]34[C@H]5C[C@@H](C(C)(C)C)[C@]36[C@@H](OC(=O)[C@@H]6O)O[C@@]4(C(=O)O5)[C@]21O [Ginkgolide A],-2.51
17,CC(c1cc2ccccc2s1)N(O)C(N)=O (stereo not drawn) [Zileuton],-0.0169
18,COc1cc(C)c(/C=C/C(C)=C/C=C/C(C)=C/C(=O)O)c(C)c1C [Acitretin],-3.85
19,CC(C)(F)C[C@H](N[C@@H](c1ccc(-c2ccc(S(C)(=O)=O)cc2)cc1)C(F)(F)F)C(=O)NC1(C#N)CC1 [Odanacatib (MK-0822)],-3.2
20,CN(C)CCC=C1c2ccccc2C=Cc2ccccc21 [Cyclobenzaprine hydrochloride],-6.02
21,O=C1c2cccc(O)c2C(=O)c2c(O)cc(CO)cc21 [Aloe-emodin],1.92
22,CN(C)CCc1c[nH]c2ccc(C[C@H]3COC(=O)N3)cc12 [Zolmitriptan],-1.08

row,Compound,total cell number
1,O=C1C(=O)N(Cc2ccc(Cl)c(Cl)c2)c2ccccc21 [Apoptosis Activator 2],-4.28
2,O=C(NC1CCOCC1)c1ccc(-c2cc(-c3c[nH]nc3-c3ccccn3)ccn2)cc1,-0.803
3,NS(=O)(=O)c1cc2c(cc1Cl)NCNS2(=O)=O [Hydrochlorothiazide],-0.552 ± 0.41
4,C[N+]1(C)CCC(=C(c2ccccc2)c2ccccc2)CC1 [Diphemanil Methylsulfate],6.3
5,COc1cc(/C=C/C(=O)O)ccc1O [Ferulic Acid],0.511
6,C/C(=N\NC(=S)N1CCC1)c1ccccn1,-11.9
7,O=c1[nH]c(=O)n([C@H]2C[C@H](O)[C@@H](CO)O2)cc1F [Floxuridine],-5.68
8,CS(=O)(=O)Nc1ccc([N+](=O)[O-])cc1Oc1ccccc1 [Nimesulide],-0.902 ± 0.91
9,CCn1cc(C(=O)O)c(=O)c2cc(F)c(N3CCNC(C)C3)c(F)c21 (stereo not drawn) [Lomefloxacin HCl],-1.57
10,CCn1cc(C(=O)O)c(=O)c2cc(F)c(N3CCNC(C)C3)c(F)c21 (stereo not drawn) [Lomefloxacin hydrochloride],-1.22
11,NC(=O)c1cc[n+](CC2=C(C(=O)O)N3C(=O)[C@@H](NC(=O)C(c4ccccc4)S(=O)(=O)[O-])[C@H]3SC2)cc1 (stereo partly drawn) [Cefsulodin sodium salt hydrate],-0.409
12,O=c1ccc2c(OCCCCc3ccccc3)c3ccoc3cc2o1 [Psora-4],-1.49
13,CC(C)CN(C[C@@H](O)[C@H](Cc1ccccc1)NC(=O)O[C@H]1CCOC1)S(=O)(=O)c1ccc(N)cc1 [Amprenavir],-0.902
14,O=C(O)C1=CCNCC1 [Isoguvacine hydrochloride],0.101
15,CNC(=C[N+](=O)[O-])NCCSCc1csc(CN(C)C)n1 [Nizatidine],0.598
16,CC1(C)[C@@H](O[C@H]2O[C@H](C(=O)O)[C@@H](O)[C@H](O)[C@H]2O[C@@H]2O[C@H](C(=O)O)[C@@H](O)[C@H](O)[C@H]2O)CC[C@]2(C)[C@H]3C(=O)C=C4[C@@H]5C[C@@](C)(C(=O)O)CC[C@]5(C)CC[C@@]4(C)[C@]3(C)CC[C@@H]12 [Ammonium Glycyrrhizinate],0.599
17,CC1(C)[C@@H](O[C@H]2O[C@H](C(=O)O)[C@@H](O)[C@H](O)[C@H]2O[C@@H]2O[C@H](C(=O)O)[C@@H](O)[C@H](O)[C@H]2O)CC[C@]2(C)[C@H]3C(=O)C=C4[C@@H]5C[C@@](C)(C(=O)O)CC[C@]5(C)CC[C@@]4(C)[C@]3(C)CC[C@@H]12 [Glycyrrhizic Acid],-0.749
18,c1ccc2c(Oc3nc(Nc4ccc(N5CCOCC5)cc4)c4ncn(C5CCCCC5)c4n3)cccc2c1 [Purmorphamine],-9.2
19,C[C@]12C=CC(=O)C=C1CC[C@@H]1C2=CC[C@]2(C)[C@@H](C(=O)CN3CCN(c4cc(N5CCCC5)nc(N5CCCC5)n4)CC3)CC[C@@H]12,-0.429
20,C[C@]12C=CC(=O)C=C1CC[C@@H]1[C@@H]2C(=O)C[C@@]2(C)[C@H]1CC[C@]2(O)C(=O)CO [Prednisone],-1.65
21,COc1cc(NC(=O)c2ccc(-c3ccc(Cl)cc3)o2)cc(OC)c1,-0.0688
